Measurements: PubChem BioAssay AID588453 (National Center for Advancing Translational Sciences (NCATS), 2011)
The campaign covered roughly 390,000 compounds. About 4,000 (1%) were called active. Inconclusive results, whose numbers are uncertain, are shown with a selection of clear calls. Calls come from the whole dose curve; as a rule, active = well fitted inhibition curve with a large enough effect; inconclusive = small, poorly fitted or top-dose-only effect; inactive = no such curve, though single readings can be large or run the other way. Where the call is inconclusive, the potency comes from a doubtful curve fit.

Biological target: Thioredoxin reductase 1, cytoplasmic (Rattus norvegicus) (UniProt O89049)
Test: qHTS Assay for Inhibitors of Mammalian Selenoprotein Thioredoxin Reductase 1 (TrxR1): qHTS; note: nearly all actives have a fitted effect of over 65% in size
Conditions: recombinant rTrxR1, NADPH fluorescence consumption, selenite substrate; series mostly up to 114 µM; activity change, negative = inhibition: at the top concentration
How it was run: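 Rat TrxR1 (90 nM in the dispensed reagent) was pre-reduced with 400 uM NADPH for 5 min at room temperature, then incubated with compound for 15 min. After 400 uM selenite was added, NADPH fluorescence (Ex 340/Em 450 nm) was followed for 8 min.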
% is set by controls: 0 for no effect and ±100 for the full control effect; potency is the fitted concentration of half-maximal effect; tags give direction and shape of the fitted curve.

UniProt O89049, sequence (O89049 whole entry, looked up): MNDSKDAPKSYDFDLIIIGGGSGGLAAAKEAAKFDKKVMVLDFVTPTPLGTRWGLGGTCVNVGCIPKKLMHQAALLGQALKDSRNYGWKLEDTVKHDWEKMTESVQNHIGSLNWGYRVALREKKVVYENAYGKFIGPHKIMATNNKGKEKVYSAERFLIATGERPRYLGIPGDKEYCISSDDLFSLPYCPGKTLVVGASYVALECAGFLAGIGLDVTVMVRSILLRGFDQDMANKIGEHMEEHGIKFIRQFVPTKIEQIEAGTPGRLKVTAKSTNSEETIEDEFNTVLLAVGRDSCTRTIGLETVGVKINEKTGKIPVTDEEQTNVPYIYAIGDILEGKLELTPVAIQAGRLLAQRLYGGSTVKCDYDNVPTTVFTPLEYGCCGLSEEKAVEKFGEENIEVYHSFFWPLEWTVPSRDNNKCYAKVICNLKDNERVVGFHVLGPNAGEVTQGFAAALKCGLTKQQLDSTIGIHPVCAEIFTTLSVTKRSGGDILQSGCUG

Row | Structure (SMILES) | Potency | activity change, negative = inhibition
1 | Cn1c(SCC(=O)Nc2ccccc2Br)nnc1-c1cnccn1 | inconclusive: 89.1 µM [inhibitor, partial curve, poor fit] | 
2 | CCc1ccc(CN2CCC(Oc3ccc(C(=O)N4CCCCC4)cc3)CC2)cc1 | inconclusive: 89.1 µM [inhibitor, single point] | 
3 | COc1ccc(/C=C/C(=O)NC(=S)NNC(=O)c2cccnc2)cc1OC | inconclusive: 35.5 µM [inhibitor, single point] | 
4 | Clc1ccc(/C=C/c2ccncc2)cc1Cl | inconclusive: 50.1 µM [inhibitor, partial curve, poor fit] | 
5 | O=C(Nc1ccccc1CC[N+](=O)[O-])N1CCN(c2ccccc2)CC1 | inconclusive: 28.2 µM [inhibitor, single point] | 
6 | CCN(c1ccccc1)c1cc2ccccc2c(=O)[nH]1 |  | inactive: 22%
7 | c1ccn2cc(-c3ccc4c(c3)OCCO4)nc2c1 |  | inactive: -14.8%
8 | Cc1cc(=O)c2c(o1)C(=O)c1occc1C2=O | active: 31.6 µM | 
9 | CC(C)(C)NC(=O)CSc1nc2ccc(NC(=O)CSc3nnnn3Cc3ccccc3)cc2s1 |  | inactive: -7.05%
10 | S=c1[nH]nc(-c2ccc3ncccc3c2)n1-c1ccc2c(c1)OCCO2 | inconclusive: 17.8 µM [inhibitor, partial curve, poor fit] | 
11 | O=C(NC1CCCC1)C(c1ccc(F)cc1)N(Cc1ccc(F)cc1)C(=O)CCl (stereo unspecified) | active: 39.8 µM | 
12 | Cc1cccc(NC(=O)C2CCN(S(=O)(=O)c3c(C)noc3/C=C/c3ccco3)CC2)n1 | inconclusive: 56.2 µM [inhibitor, partial curve] | 
13 | Cn1c(N=NC(=O)c2ccccc2)c(O)c2ccccc21 |  | inactive: 0.411% [at 57.1 µM]
14 | Cc1cccc(C)c1N(CC(=O)N/N=C/c1cc(Br)c(C)o1)S(C)(=O)=O | inconclusive: 70.8 µM [inhibitor, partial curve] | 
15 | Nn1c(SCC(=O)Nc2cccnc2Cl)nnc1-c1ccccc1 | inconclusive: 5.01 µM [inhibitor, full curve, poor fit] | 
16 | CCn1cc(/C=C(\NC(=O)c2ccccc2F)C(=O)NCCCn2ccnc2)c2ccccc21 | inconclusive: 89.1 µM [inhibitor, single point] | 
17 | Cc1[nH]n(-c2ccccc2)c(=S)c1C=Nc1cccc([N+](=O)[O-])c1 | inconclusive: 35.5 µM [inhibitor, single point] | 
18 | Cc1c(NC(C)c2ccccc2O)c(=O)n(-c2ccccc2)n1C (stereo unspecified) | inconclusive: 70.8 µM [inhibitor, single point] | 
19 | N#Cc1c(Sc2ncc(C(F)(F)F)cc2Cl)nsc1C/C=N\OCc1ccccc1Br | inconclusive: 31.6 µM [inhibitor, partial curve, poor fit] | 
20 | O=C(Cn1nc(-c2ccco2)ccc1=O)Nc1ccc(Cl)c(Cl)c1 | inconclusive: 17.8 µM [inhibitor, full curve, poor fit] | 
21 | COc1cccc(N2CC(C(=O)Nc3nnc(SCC(=O)N4CCCC4)s3)CC2=O)c1 (stereo unspecified) | inconclusive: 70.8 µM [inhibitor, single point] | 
22 | COc1ccc(NC(=O)Cn2cnc3c(oc4ccccc43)c2=O)cc1OC |  | inactive: 7.42%

Row | Structure (SMILES) | Potency | activity change, negative = inhibition
23 | Cc1cccc(-n2c(=O)c3ccccc3n3c(=S)[nH]nc23)c1C | inconclusive: 1.58 µM [inhibitor, partial curve, poor fit] | 
24 | O=C(CCl)NCCN1C(=O)S/C(=C\c2cccnc2)C1=O | inconclusive: 50.1 µM [inhibitor, partial curve] | 
25 | Cc1cc2cc(OCc3ccccc3)ccc2n1C |  | inactive: 17.6%
26 | CCC(=O)Nc1c(C(=O)N2CCN(c3ccccn3)CC2)cnn1-c1ccc(C)cc1 |  | inactive: -3.06%
27 | Cc1ccc(C(C[N+](=O)[O-])c2c(N)n(C)c(=O)n(C)c2=O)cc1 (stereo unspecified) | inconclusive: 15.8 µM [inhibitor, full curve] | 
28 | Nc1ccc(S(=O)(=O)Nc2nccc(/C=C/c3ccc(Cl)cc3Cl)n2)cc1 |  | inactive: 16.4%
29 | C#CCOCCOCCOCCNc1nc(N2CCN(C(=O)[C@H](Cc3ccc(O)cc3)n3cc([C@@H](N)C(C)CC)nn3)CC2)nc(N2CCN(C(=O)[C@H](Cc3cc4ccccc4[nH]3)n3cc([C@@H](N)CC(C)C)nn3)CC2)n1 (stereo partly specified) | inconclusive: 12.6 µM [inhibitor, partial curve, poor fit] | 
30 | CCOC(=O)C(C(=O)OCC)C(C(=O)OCC)N1CCOCC1 (stereo unspecified) | active: 1.26 µM | 
31 | CC(C)(C)c1cc(-n2ccnc2)n2ncc(-c3ccc(Cl)cc3)c2n1 | inconclusive: 89.1 µM [inhibitor, single point] | 
32 | Cc1cc(C)cc(OCC(=O)NCC2(N(C)C)CCCCC2)c1 |  | inactive: 12.4%
33 | Cc1nnc(SCC(=O)Nc2sc3c(c2C(N)=O)CCCC3)[nH]c1=O | inconclusive: 25.1 µM [inhibitor, single point] | 
34 | COc1cc(/C=C/C(=O)c2ccc3c(c2)OCO3)cc(Cl)c1O | inconclusive: 79.4 µM [inhibitor, single point] | 
35 | Cc1ccc(/C=C2\SC(=S)N(CCCC(=O)Nc3ccccn3)C2=O)cc1 |  | inactive: -11.7%
36 | CSC1=NSC2=NC(=O)/C(=C\c3coc4ccccc4c3=O)C(=N)N12 | inconclusive: 79.4 µM [inhibitor, single point] | 
37 | COc1ccc(-c2cn3ccccc3n2)cc1OC |  | inactive: 62.5% [at 57.1 µM]
38 | COc1cccc(Cn2c(=O)n(-c3ccccc3C)c(=O)c3c2c2cc(C)ccc2n3C)c1 |  | inactive: 331%
39 | Cc1c(C(=O)N/N=C/c2ccc(-c3ccccc3[N+](=O)[O-])o2)sc(N)c1C#N |  | inactive: -20.7%
40 | CCOC(=O)C1CCN(C(=O)c2ccc3c(c2)S(=O)(=O)c2ccccc2C3=O)CC1 | inconclusive: 12.6 µM [inhibitor, partial curve, poor fit] | 
41 | COc1cccc(N=C2SC(C(=O)Nc3ccc(F)cc3)CC(=O)N2C)c1 (stereo unspecified) |  | inactive: -1.81%
42 | CCC(Oc1ccccc1)C(=O)Nc1ncc([N+](=O)[O-])s1 (stereo unspecified) |  | inactive: -4.56% [at 57.1 µM]
43 | CCOC(=O)c1c(NC(=O)COC(=O)Cn2cnc3c2c(=O)n(C)c(=O)n3C)sc(C)c1CC | inconclusive: 44.7 µM [inhibitor, partial curve, poor fit] | 
44 | CC1(C)N=C(N)N=C(N)N1c1ccc(Oc2ccc(Cl)cc2)c(Cl)c1 |  | inactive: -0.685%

Row | Structure (SMILES) | Potency | activity change, negative = inhibition
45 | COc1ccc(NC(=O)c2oc3ccccc3c2NC(=O)COc2ccccc2OC)c(OC)c1 | inconclusive: 25.1 µM [inhibitor, partial curve, poor fit] | 
46 | CN(C)CCOC(C1CCCCC1)C1CCCCC1 |  | inactive: 31%
47 | CC1CCN(C(=O)Cn2nnnc2CN2CCOCC2)CC1 | inconclusive: 44.7 µM [inhibitor, partial curve, poor fit] | 
48 | CCC1CCCCN1C(=S)Nc1ccc(C(C)=O)cc1 (stereo unspecified) | inconclusive: 20 µM [inhibitor, partial curve, poor fit] | 
49 | O=C(NCC(c1ccco1)N1CCCC1)c1ccc(S(=O)(=O)Nc2ccccc2Cl)cc1 (stereo unspecified) | inconclusive: 44.7 µM [inhibitor, partial curve, poor fit] | 
50 | CC1CCCC(C)N1C(=O)c1cc(-c2ccco2)on1 (stereo unspecified) | inconclusive: 89.1 µM [inhibitor, single point] | 
51 | O=C(N/N=C/c1cccnc1)c1cccc(NC(=O)c2cccc(Br)c2)c1 |  | inactive: 13.2%
52 | N=C1/C(=C/c2ccco2)C(=O)N=C2SC(CC(=O)N3CCCC3)=NN12 | inconclusive: 89.1 µM [inhibitor, partial curve, poor fit] | 
53 | Cc1cnc(C(=O)Nc2ccccc2-n2cccc2)cn1 | inconclusive: 28.2 µM [inhibitor, single point] | 
54 | O=[N+]([O-])c1cc(S(=O)(=O)CCCN2CCOCC2)ccc1F | active: 11.2 µM | 
55 | CC1=NOC(=O)/C1=C\c1ccc(-c2ccccc2Br)o1 | inconclusive: 10 µM [inhibitor, full curve] | 
56 | CC1CCCCC1NCc1cccc([N+](=O)[O-])c1 (stereo unspecified) | inconclusive: 44.7 µM [inhibitor, partial curve, poor fit] | 
57 | COc1ccc(NC(=S)NC(=O)C2CCC2)cc1 | inconclusive: 79.4 µM [inhibitor, single point] | 
58 | COc1ccc(/C=N/Nc2ncnc(Cl)c2N)cc1OC | inconclusive: 25.1 µM [inhibitor, full curve, poor fit] | 
59 | CCC(=O)N1CCN(CCN=CC2=C(O)CC(c3cccs3)CC2=O)CC1 (stereo unspecified) | inconclusive: 56.2 µM [inhibitor, partial curve, poor fit] | 
60 | CCC1CN(C(=O)N2CCC(C(=O)Nc3cc(C)ccc3C)CC2)c2ccccc2O1 (stereo unspecified) | inconclusive: 17.8 µM [inhibitor, single point] | 
61 | CC(C)(C)OC(=O)C[C@H]1C/C=C\C[C@H](CC(=O)N(CCO)Cc2ccccc2)C(=O)N[C@H](C(C)(C)C)COC1=O | inconclusive: 89.1 µM [inhibitor, single point] | 
62 | Cc1cc(=O)oc2cc(OC(=O)C3CCN(C(=O)c4ccc(F)cc4)CC3)ccc12 | inconclusive: 50.1 µM [inhibitor, partial curve, poor fit] | 
63 | CCOC(=O)C1=C(c2ccc(OC)cc2)OC(N)=C(C#N)C1c1cccnc1 (stereo unspecified) | active: 79.4 µM | 
64 | COC(=O)C1=C(C)N(c2cc(Cl)cc(Cl)c2)C(=O)C1 | inconclusive: 56.2 µM [inhibitor, partial curve, poor fit] | 
65 | CC[C@]12c3[nH]c4ccc(OC)cc4c3CCN1C(=O)C(CC(=O)NCCCOC)C[C@@H]2C(=O)N1CCN(C(=O)C2CC2)CC1 (stereo partly specified) | inconclusive: 39.8 µM [inhibitor, single point] | 
66 | Cc1cc(C(=O)COc2ccc(Br)cc2F)c(C)n1C1CC1 | inconclusive: 79.4 µM [inhibitor, partial curve, poor fit] | 
